# In the supplement of paper PMC9446081:
# About 220 (0.56%) of roughly 39,000 compounds showed activity. This is one part of the list.
# Test system: Escherichia coli K-12 BW25113
# Test: relative growth (OD600 normalised to plate interquartile mean) (fraction); higher = less growth inhibition, active = 0.2 or less
# Settings: 50 µM; LB; incubation time: overnight (16-24 h)
# 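Note: static incubation at 37 °C against the wild-type strain, values averaged over two biological replicates.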
row,Structure (SMILES),relative growth
1,COc1ccc(NC(=O)Nc2ccc3c(c2)C(=O)N([C@H](C)CO)C[C@H](C)[C@@H](CN(C)S(=O)(=O)c2ccc(C)cc2)OCCCC[C@@H](C)O3)cc1,inactive: 1.02
2,COc1ccc(NC(=O)Nc2ccc3c(c2)C(=O)N([C@@H](C)CO)C[C@H](C)[C@H](CN(C)S(=O)(=O)c2ccc(OC)cc2)OCCCC[C@@H](C)O3)cc1,inactive: 1.03
3,C[C@@H]1CN([C@H](C)CO)C(=O)c2cc(C#CC3(O)CCCC3)cnc2O[C@@H]1CN(C)C(=O)Cc1ccccc1,inactive: 0.98
4,COc1ccc(NC(=O)Nc2ccc3c(c2)C(=O)N([C@@H](C)CO)C[C@@H](C)[C@@H](CN(C)Cc2ccccc2)OCCCC[C@@H](C)O3)cc1,inactive: 1
5,Cc1noc(C)c1NC(=O)Nc1ccc2c(c1)C(=O)N([C@H](C)CO)C[C@H](C)[C@H](CN(C)Cc1ccc(C(F)(F)F)cc1)OCCCC[C@@H](C)O2,inactive: 0.971
6,C[C@@H]1CN([C@H](C)CO)C(=O)c2cc(N(C)C)ccc2O[C@@H](C)CCCCO[C@@H]1CN(C)C(=O)Nc1ccc(C(F)(F)F)cc1,inactive: 1
7,CNC(=O)c1c(I)c(NC(C)=O)c(I)c(C(=O)O)c1I,inactive: 1.18
8,Cc1noc(C)c1S(=O)(=O)Nc1cccc2c1O[C@H](CN(C)Cc1ccccc1)[C@H](C)CN([C@H](C)CO)C2=O,inactive: 1.01
9,COC(=O)c1c(CC[C@@H](CO)NC(=O)N[C@@H](Cc2ccccc2)Cn2cc(C3(O)CCCC3)nn2)oc(C(=O)N2CCOCC2)c1C(=O)OC,inactive: 0.996
10,CS(=O)(=O)N1C[C@@H]2OCCN(c3cnccn3)[C@H]2C1,inactive: 1.01
11,C[C@H]1CN([C@@H](C)CO)C(=O)Cc2cc(NC(=O)CCN3CCOCC3)ccc2O[C@H]1CN(C)CC1CC1,inactive: 0.999
12,Clc1ccc(-c2cnc3ccc(-c4ccccc4)cn23)cc1,inactive: 1
13,C[C@@H]1CCCCO[C@H](CN(C)C(=O)c2ccccc2)[C@@H](C)CN([C@@H](C)CO)C(=O)c2cc(NC(=O)Nc3ccc(F)cc3)ccc2O1,inactive: 0.987
14,C[C@@H]1CN([C@@H](C)CO)C(=O)c2cc(C#Cc3ccccc3F)cnc2O[C@@H]1CN(C)C(=O)Cc1cccnc1,inactive: 0.999
15,C[C@H]1CN([C@@H](C)CO)C(=O)c2cc(NC(=O)NC3CCCCC3)ccc2O[C@H]1CN(C)Cc1ccc(C(F)(F)F)cc1,inactive: 0.994
16,C[C@@H]1CCCCO[C@@H](CN(C)Cc2ccncc2)[C@H](C)CN([C@H](C)CO)C(=O)c2cc(NC(=O)C3CCCCC3)ccc2O1,inactive: 1.01
17,C[C@@H]1CN([C@@H](C)CO)C(=O)c2cc(NS(=O)(=O)c3cccs3)ccc2O[C@@H](C)CCCCO[C@@H]1CN(C)C(=O)Nc1cccc2ccccc12,inactive: 1.01
18,C[C@@H]1CN([C@@H](C)CO)C(=O)c2cccc(NC(=O)c3ccc(-c4nccs4)cc3)c2O[C@@H]1CN(C)C(=O)Nc1ccc(F)cc1,inactive: 0.997
19,COc1ccc(-c2cnc3c(c2)C(=O)N([C@@H](C)CO)C[C@@H](C)[C@@H](CN(C)C(=O)Cc2cccnc2)O3)cc1,inactive: 1
20,C[C@@H]1CN([C@@H](C)CO)C(=O)c2cc(NC(=O)CCC(F)(F)F)ccc2O[C@@H](C)CCCCO[C@H]1CN(C)Cc1ccc2c(c1)OCO2,inactive: 0.991

row,Structure (SMILES),relative growth
1,OCc1cccc(-c2ccsc2)c1,inactive: 0.966
2,COCC#Cc1ccc2c(c1)O[C@@H](CN(C)Cc1ccc(F)cc1)[C@H](C)CN([C@@H](C)CO)S2(=O)=O,inactive: 1.05
3,COc1cccc(-c2ccc3c(c2)O[C@@H](CN(C)C(=O)C2CCC2)[C@@H](C)CN([C@@H](C)CO)S3(=O)=O)c1,inactive: 1.02
4,C[C@H](CO)N1C[C@H](C)[C@@H](CN(C)Cc2ccc(Oc3ccccc3)cc2)Oc2c(NC(=O)Cc3ccccc3)cccc2C1=O,inactive: 1.03
5,O=C(NCCO)C(=O)NCc1ccco1,inactive: 0.99
6,CC(=O)N1CC(=O)N(c2cnn(C)c2)C[C@]12CCN(C(=O)c1cnc(C)cn1)C2,inactive: 0.975
7,C[C@@H]1CN([C@H](C)CO)C(=O)c2cc(NC(=O)Nc3ccc(F)cc3)ccc2O[C@H]1CN(C)S(=O)(=O)c1cn(C)cn1,inactive: 1.01
8,CN1CCN(C(=O)C[C@H]2C=C[C@@H](NC(=O)Nc3ccccc3F)[C@@H](CO)O2)CC1,inactive: 0.995
9,O=C1C(=CNC(CO)(CO)CO)C(=O)c2ccccc21,inactive: 1.01
10,C[C@@H]1CCCCO[C@@H](CN(C)C(=O)CCC(F)(F)F)[C@@H](C)CN([C@@H](C)CO)C(=O)c2cc(NS(=O)(=O)c3ccc(F)cc3)ccc2O1,inactive: 0.984
11,O=C(C[C@@H]1CC[C@H]2[C@@H](COC[C@@H](O)CN2C(=O)c2ccc3c(c2)OCO3)O1)NCCN1CCCC1,inactive: 1.01
12,N#CCn1ccccc1=O,inactive: 0.984
13,O=C(C[C@@H]1CC[C@@H]2[C@H](COC[C@@H](O)CN2S(=O)(=O)c2cccc(F)c2)O1)NCc1ccc2c(c1)OCO2,inactive: 1.04
14,C[C@@H]1CCCCO[C@H](CN(C)Cc2ccccc2)[C@H](C)CN([C@H](C)CO)C(=O)c2cc(NS(=O)(=O)c3cccs3)ccc2O1,inactive: 1.03
15,C[C@H](CO)N1C[C@H](C)[C@@H](CN(C)C(=O)Nc2ccc(C(F)(F)F)cc2)Oc2ccc(NS(=O)(=O)c3ccc(Cl)cc3)cc2C1=O,inactive: 1.05
16,CO[C@@H]1CN(C)C(=O)c2cc(NC(=O)CN(C)C)ccc2OC[C@@H](C)N(Cc2ccccc2F)C[C@H]1C,inactive: 1.03
17,Cc1ccc(S(=O)(=O)N(C)C[C@H]2Oc3cc(Br)ccc3S(=O)(=O)N([C@@H](C)CO)C[C@@H]2C)cc1,inactive: 1.02
18,C[C@H]1CCCCO[C@H](CN(C)C(=O)CCC(F)(F)F)[C@@H](C)CN([C@@H](C)CO)C(=O)c2cc(NC(=O)Nc3ccc4c(c3)OCO4)ccc2O1,inactive: 1.02
19,CC(C)(C)NCC(O)COc1ccccc1C1CCCC1.O=S(=O)(O)O (centres undefined),inactive: 0.863
